Results: the supplement of paper PMC10126150
Sequences with one replicate were seen in a single cluster, so their values are uncertain.

Test system: ATP
Experiment: switch fluorescence ratio, 500 uM ATP over buffer (Cy3 cluster intensity, sum of 5 cycles each) (fold (ratio)); higher = stronger signal-on switching upon ATP binding; sequences stand for … in TCGTCGGCAGCGTCAGATGTGTATAAGAGACAGTTTTTTTTTTTTTTTTTTTTTTTTT…TC
Conditions: aptamer strand: ATP DNA aptamer (quencher-CACCTGGGGGAGTATTGCGGAGGAAGG + anchor), 100 nM annealed; ATP concentration: 500 uM; one replicate
In short: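 Imaging in selection buffer was followed by imaging after 15 min with 500 uM ATP at 22 °C, for Cy3-labelled switching-strand clusters annealed to 100 nM quencher-labelled ATP aptamer on a modified Illumina MiSeq flow-cell. Five of these buffer/ATP cycles ran, separated by NaOH stripping and re-annealing. The fluorescence ratio per cluster is summed target-cycle over summed buffer-cycle Cy3 intensity, averaged per switch-domain sequence; clusters outside 100-1000 RFU were removed.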
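Note: ATP exposure 15 min at 22 °C before imaging.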

Sequence	switch fluorescence ratio
TATGGTCACT	0.99
TAATCCCGTG	0.991
CAGAGAGGTA	1
TTAAGGGTAG	0.991
AAAAAAGGAA	1
GTGGGTTTCG	0.979
AGTAGACAAT	0.987
ACTATGTCCC	1.04
GCAAGGCGCA	1.05
CATGCAAGAG	2.28
GCCACACGAG	1.03
GTTATACCGA	1.03
GAATACGCTT	1.57
GCATTTTTTG	0.986
TGGATGGTGA	0.957
CCGAATGTGA	2.27
AGGCAATCCG	1.05
GTTGGTGGGC	0.883
GCTGTTTCTT	0.977
TGTTTTAGCA	1.01
AACTGATAAG	0.992
TAAGCATGTG	1.03
TATAAAGCTA	1.04

Sequence	switch fluorescence ratio
CCTATGCCGA	1.04
ATTCCCGTAC	1.31
TCCAGAGGTT	0.999
GTTTTCCGGT	1.01
AGATTCACGT	1.01
TATCATCTT	1.01
GTCAACTTGG	0.994
CAAGGGTACG	1.06
TAGTTGGAAT	0.996
TTCGGCGCCC	0.979
AGTCCTTAAA	0.992
GTGAATCTAC	1.03
GTTCTAATTC	1.04
TAAACTTTTT	1.04
TTAATTGGCA	1.01
GATAGTTTCT	0.976
TAGATTGTTA	0.98
ACTGAAGGCA	1
AAGCACCCGA	1.17
GCGTGCATTT	0.938
TATACGCCGC	1.28
GTTTTTCGTA	0.976
ATTGGTGAAA	1.01

Sequence	switch fluorescence ratio
TAGTTGGTGT	1.03
TATTTCGTGC	1.05
TCAGATGTG	0.974
TTCTAGACGG	1.03
TCGAAGCTTG	1.05
TCGTAAAGTG	0.964
GAGTCTGCTC	1.02
TGGAGCCATA	1.01
CGACGCTTGG	2.21
CGCGTGCTCA	1.09
GCAAGGGCCT	1.03
GGGGGTCTAG	0.948
TGCCGACCTA	1.06
ACTAGATTGC	0.975
TCACGGGGCG	1.01
TTAGCTAATT	1.03
ATATTCTGCT	0.968
CAGGTACGGC	0.989
TAAGGAGGAA	1.01
ACAGCTCCTT	1.04
TGCTAGTTAT	1.03
TTGTAAGCTG	1.09
GCAGCCTAA	0.996

Sequence	switch fluorescence ratio
GGTATGGTCC	1.04
AGCAGCTGAT	0.994
GGCAAAAGTT	1.02
AGTACAACCT	1.8
TAGATATCTA	1.04
ATAAGTGTTT	0.998
ACGAAAACGT	1
ACAGGACCCA	1.11
TGCGGATGAA	0.994
CTCGCAGCA	1.92
TATTTTCCGG	0.961
TGAGTTAT	1.02
TAGCTCTGAT	1.02
TAGGATACCG	1.08
TGGGTTGAAC	1
CGTTTGAGTC	1.03
ACGCTTATGG	1.12
GTGTAGCCTA	1.01
ATAGAGTCCG	1.07
CCGTTAGGGT	1.02
TATGTAAAGG	0.998
GATGCCTGTG	0.987
ATGATGCAG	1.01

Sequence	switch fluorescence ratio
CCGATATCAC	2.45
AAGGTGCGCA	1.1
CTGTCATTAG	1.05
CTCATGGCGG	0.997
GGGATACGAA	0.996
AGTGATCG	1
GTAATCTACG	1.02
GCGACTATAT	1.16
TGGGGCAGAT	1.02
AGTACGCTGT	1.02
GAGTGGTATC	1.09
AACTGAATAA	1.07
CCCGAAGGGA	1.37
CACCTATGCA	1.1
CGACCTAAGA	1.04
TAAAAGATCC	0.978
GTACGTTGGG	1.02
CTTTCCTTTA	1.02
AAGGCGCAGG	1.1
CATTGAAGGG	0.956
TCTGTATTTA	0.978
TTTAAACGAT	1.05
GCAGTTTACT	1.04

Sequence	switch fluorescence ratio
GGAGAATGCT	0.959
CTATCTAATA	1.02
TCGGCCAATC	2.02
CTACCTCTAA	1.04
TATCTAGTGC	1.01
GTAGCAACG	1.18
CCAGGGTCCG	1.01
ATTGTGGTTC	0.974
AGGGCCGTTA	1
ATTTTGGGG	1.03
TAATATGCG	0.981
GTAGCAGCTT	1.07
AGGGTGGGAG	0.999
AGCAAATCAA	0.995
GCTCGGGAAT	2.01
CTTTGTAAGA	1.04
ATGCGTGGCC	1
GTATGGAACA	1.03
ATCAGCGGTC	1.12
TTGTCCGTGG	1.01
GCTCAAATG	1.01
AACCCCAAGG	1.4
ATTGCGACAG	0.99

Sequence	switch fluorescence ratio
TCAGGATCCC	0.99
AGGTACGCGC	1.03
CCTTGTGTCG	0.979
ATTTCCGGTC	1.04
TCGGAAGTC	1.04
GTTCTGGGTC	1.01
AGACGTCTGT	0.993
AGATGGCTCT	0.999
CGCCCGCTTC	1.97
TTGGACGAGT	1.02
GGTAGTTGGA	0.992
AACTGACTGT	1.08
TGGAGTGTGA	1.02
TAGATGATCG	0.932
TCCGGTGTAA	1.75
GTCAGGTCCA	1.07
GATTCTGTGC	0.961
GGTCGCTATC	1.04
CTTGTTAGAG	0.935
